The supplement of paper PMC8728848
The list shows a part of the results.

Columns and labels:
Assay in all cases: glycan array binding signal (z-score within array); higher = stronger binding
Settings in all cases: glycan notation: IUPAC condensed, linker removed
[1] = target: Neu5Ac(a2-3)GalNAc(b1-4)GlcNAc
How it was run: (§1)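 Arrays were curated from the Consortium for Functional Glycomics database, 3228 in total, and kept only where the protein sequence was available. Binding is expressed as a within-array Z-score. This score was averaged across arrays of the same protein sequence at different concentrations or buffers and across linkers, and negative values can be read as non-binding.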

[2] = target: Neu5Ac(a2-3)[GalNAc(b1-4)]Gal(b1-4)Glc
How it was run: as §1

[3] = target: Neu5Ac(a2-3)[GalNAc(b1-4)]Gal(b1-4)GlcNAc
How it was run: as §1

[4] = target: Neu5Ac(a2-3)[GalNAc(b1-4)]Gal(b1-4)GlcNAc(b1-3)GalNAc
How it was run: as §1

[5] = target: Neu5Ac(a2-3)[Neu5Ac(a2-6)]GalNAc
How it was run: as §1

Neu5Ac(a2-6)Gal = target: Neu5Ac(a2-6)Gal
How it was run: as §1

[6] = target: Neu5Ac(a2-6)Gal(b1-3)GlcNAc(b1-3)[Gal(b1-4)GlcNAc(b1-6)]Gal(b1-4)Glc
How it was run: as §1

Neu5Ac(a2-6)Gal(b1-4)Glc = target: Neu5Ac(a2-6)Gal(b1-4)Glc
How it was run: as §1

[7] = target: Neu5Ac(a2-6)Gal(b1-4)GlcNAc
How it was run: as §1

[8] = target: Neu5Ac(a2-6)Gal(b1-4)GlcNAc(b1-2)Man
How it was run: as §1

[9] = target: Neu5Ac(a2-6)Gal(b1-4)GlcNAc(b1-2)Man(a1-3)Man(b1-4)GlcNAc(b1-4)GlcNAc
How it was run: as §1

[10] = target: Neu5Ac(a2-6)Gal(b1-4)GlcNAc(b1-2)Man(a1-3)[Gal(b1-4)GlcNAc(b1-2)Man(a1-6)]Man(b1-4)GlcNAc(b1-4)GlcNAc
How it was run: as §1

[11] = target: Neu5Ac(a2-6)Gal(b1-4)GlcNAc(b1-2)Man(a1-3)[GlcNAc(b1-2)Man(a1-6)]Man(b1-4)GlcNAc(b1-4)GlcNAc
How it was run: as §1

[12] = target: Neu5Ac(a2-6)Gal(b1-4)GlcNAc(b1-2)Man(a1-3)[GlcNAc(b1-4)][Neu5Ac(a2-6)Gal(b1-4)GlcNAc(b1-2)Man(a1-6)]Man(b1-4)GlcNAc(b1-4)GlcNAc
How it was run: as §1

[13] = target: Neu5Ac(a2-6)Gal(b1-4)GlcNAc(b1-2)Man(a1-3)[Man(a1-6)]Man(b1-4)GlcNAc(b1-4)GlcNAc
How it was run: as §1

[14] = target: Neu5Ac(a2-6)Gal(b1-4)GlcNAc(b1-2)Man(a1-3)[Neu5Ac(a2-3)Gal(b1-4)GlcNAc(b1-2)Man(a1-6)]Man(b1-4)GlcNAc(b1-4)GlcNAc
How it was run: as §1

[15] = target: Neu5Ac(a2-6)Gal(b1-4)GlcNAc(b1-2)Man(a1-3)[Neu5Ac(a2-6)Gal(b1-4)GlcNAc(b1-2)Man(a1-6)]Man(b1-4)GlcNAc(b1-4)GlcNAc
How it was run: as §1

[16] = target: Neu5Ac(a2-6)Gal(b1-4)GlcNAc(b1-2)Man(a1-3)[Neu5Ac(a2-6)Gal(b1-4)GlcNAc(b1-2)Man(a1-6)]Man(b1-4)GlcNAc(b1-4)[Fuc(a1-6)]GlcNAc
How it was run: as §1

[17] = target: Neu5Ac(a2-6)Gal(b1-4)GlcNAc(b1-2)Man(a1-6)Man(b1-4)GlcNAc(b1-4)GlcNAc
How it was run: as §1

[18] = target: Neu5Ac(a2-6)Gal(b1-4)GlcNAc(b1-2)Man(a1-6)[Gal(b1-4)GlcNAc(b1-2)Man(a1-3)]Man(b1-4)GlcNAc(b1-4)GlcNAc
How it was run: as §1

[19] = target: Neu5Ac(a2-6)Gal(b1-4)GlcNAc(b1-2)Man(a1-6)[GlcNAc(b1-2)Man(a1-3)]Man(b1-4)GlcNAc(b1-4)GlcNAc
How it was run: as §1

[20] = target: Neu5Ac(a2-6)Gal(b1-4)GlcNAc(b1-2)Man(a1-6)[Man(a1-3)]Man(b1-4)GlcNAc(b1-4)GlcNAc
How it was run: as §1

[21] = target: Neu5Ac(a2-6)Gal(b1-4)GlcNAc(b1-2)[Neu5Ac(a2-6)Gal(b1-4)GlcNAc(b1-4)]Man(a1-3)[GlcNAc(b1-4)][Neu5Ac(a2-6)Gal(b1-4)GlcNAc(b1-2)[Neu5Ac(a2-6)Gal(b1-4)GlcNAc(b1-6)]Man(a1-6)]Man(b1-4)GlcNAc(b1-4)GlcNAc
How it was run: as §1

[22] = target: Neu5Ac(a2-6)Gal(b1-4)GlcNAc(b1-2)[Neu5Ac(a2-6)Gal(b1-4)GlcNAc(b1-4)]Man(a1-3)[GlcNAc(b1-4)][Neu5Ac(a2-6)Gal(b1-4)GlcNAc(b1-4)Man(a1-6)]Man(b1-4)GlcNAc(b1-4)GlcNAc
How it was run: as §1

[23] = target: Neu5Ac(a2-6)Gal(b1-4)GlcNAc(b1-2)[Neu5Ac(a2-6)Gal(b1-4)GlcNAc(b1-6)]Man(a1-6)[Neu5Ac(a2-6)Gal(b1-4)GlcNAc(b1-2)Man(a1-3)][GlcNAc(b1-4)]Man(b1-4)GlcNAc(b1-4)GlcNAc
How it was run: as §1

[24] = target: Neu5Ac(a2-6)Gal(b1-4)GlcNAc(b1-3)Gal(b1-3)GlcNAc
How it was run: as §1

[25] = target: Neu5Ac(a2-6)Gal(b1-4)GlcNAc(b1-3)Gal(b1-4)GlcNAc
How it was run: as §1

[26] = target: Neu5Ac(a2-6)Gal(b1-4)GlcNAc(b1-3)Gal(b1-4)GlcNAc(b1-2)Man(a1-3)[Neu5Ac(a2-6)Gal(b1-4)GlcNAc(b1-3)Gal(b1-4)GlcNAc(b1-2)Man(a1-6)]GalNAc
How it was run: as §1

[27] = target: Neu5Ac(a2-6)Gal(b1-4)GlcNAc(b1-3)Gal(b1-4)GlcNAc(b1-3)Gal(b1-4)GlcNAc
How it was run: as §1

[28] = target: Neu5Ac(a2-6)Gal(b1-4)GlcNAc(b1-3)Gal(b1-4)GlcNAc(b1-3)Gal(b1-4)GlcNAc(b1-2)Man(a1-3)[Neu5Ac(a2-6)Gal(b1-4)GlcNAc(b1-3)Gal(b1-4)GlcNAc(b1-3)Gal(b1-4)GlcNAc(b1-2)Man(a1-6)]GalNAc
How it was run: as §1

[29] = target: Neu5Ac(a2-6)Gal(b1-4)GlcNAc(b1-3)Gal(b1-4)GlcNAc(b1-3)GalNAc
How it was run: as §1

[30] = target: Neu5Ac(a2-6)Gal(b1-4)GlcNAc(b1-3)Gal(b1-4)GlcNAc(b1-3)[Neu5Ac(a2-6)Gal(b1-4)GlcNAc(b1-3)Gal(b1-4)GlcNAc(b1-6)]GalNAc
How it was run: as §1

[31] = target: Neu5Ac(a2-6)Gal(b1-4)GlcNAc(b1-3)Gal(b1-4)GlcNAc(b1-6)[Gal(b1-3)]GalNAc
How it was run: as §1

[32] = target: Neu5Ac(a2-6)Gal(b1-4)GlcNAc(b1-3)Gal(b1-4)[Fuc(a1-3)]GlcNAc(b1-3)Gal(b1-4)[Fuc(a1-3)]GlcNAc
How it was run: as §1

[33] = target: Neu5Ac(a2-6)Gal(b1-4)GlcNAc(b1-3)GalNAc
How it was run: as §1

[34] = target: Neu5Ac(a2-6)Gal(b1-4)GlcNAc(b1-3)[Neu5Ac(a2-6)Gal(b1-4)GlcNAc(b1-6)]GalNAc
How it was run: as §1

[35] = target: Neu5Ac(a2-6)Gal(b1-4)GlcNAc(b1-6)GalNAc
How it was run: as §1

[36] = target: Neu5Ac(a2-6)Gal(b1-4)GlcNAc(b1-6)[Gal(b1-3)GlcNAc(b1-3)]Gal(b1-4)Glc
How it was run: as §1

B1: EULS2 M4 (Oryza sativa) (protein)
chain: MVYCRANPNYAMTARNGAVVLAPANPKDEYQHWIKDMRWSTSIKDEEGYPAFALVNKATGQAIKHSLGQSHPVRLVPYNPEVMDESVLWTESRDVGNGFRCIRMVNNIYLNFDAFHGDKYHGGVRDGTDIVLWKWCEGDSLRWKIQPYYILEQKLISEEDLNSAVDHHHHHH
glycan array binding signal (z-score) [1]: 0.042
glycan array binding signal (z-score) [2]: -0.438
glycan array binding signal (z-score) [3]: -0.57
glycan array binding signal (z-score) [4]: -0.408
glycan array binding signal (z-score) [5]: -0.347
glycan array binding signal (z-score) (Neu5Ac(a2-6)Gal): 0.435
glycan array binding signal (z-score) [6]: -0.674
glycan array binding signal (z-score) (Neu5Ac(a2-6)Gal(b1-4)Glc): -0.926
glycan array binding signal (z-score) [7]: 0.006
glycan array binding signal (z-score) [8]: -0.431
glycan array binding signal (z-score) [9]: -0.572
glycan array binding signal (z-score) [10]: -0.477
glycan array binding signal (z-score) [11]: -0.497
glycan array binding signal (z-score) [12]: -0.167
glycan array binding signal (z-score) [13]: -0.489
glycan array binding signal (z-score) [14]: 1.15
glycan array binding signal (z-score) [15]: 1.08
glycan array binding signal (z-score) [16]: -0.557
glycan array binding signal (z-score) [17]: -0.664
glycan array binding signal (z-score) [18]: -0.612
glycan array binding signal (z-score) [19]: -0.559
glycan array binding signal (z-score) [20]: -0.55
glycan array binding signal (z-score) [21]: -0.51
glycan array binding signal (z-score) [22]: -0.656
glycan array binding signal (z-score) [23]: -0.478
glycan array binding signal (z-score) [24]: 2.81
glycan array binding signal (z-score) [25]: -0.579
glycan array binding signal (z-score) [26]: -0.284
glycan array binding signal (z-score) [27]: -0.507
glycan array binding signal (z-score) [28]: 0.808
glycan array binding signal (z-score) [29]: -0.1
glycan array binding signal (z-score) [30]: 2.05
glycan array binding signal (z-score) [31]: 1.43
glycan array binding signal (z-score) [32]: 4.01
glycan array binding signal (z-score) [33]: -0.345
glycan array binding signal (z-score) [34]: 7.46
glycan array binding signal (z-score) [35]: -0.265
glycan array binding signal (z-score) [36]: -0.428
